Whole data set: some 33,000 sequences, median “E-score (-0.5 to 0.5)” near -0.016, cut for the highest 2% near 0.31. This is one part of the list.
These sequences were tested against Cst6 (UniProt P40535) (assay: PBM E-score (8-mer binding enrichment) (E-score (-0.5 to 0.5)); higher = stronger / more preferred TF binding; most listed sequences are background and not binding sites). Details: protein concentration: 200 nM; construct: GST-DNA-binding domain.
In short: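 Yeast transcription factors carrying a GST tag, as full-length proteins or DNA-binding domains, were produced by PURExpress in vitro transcription/translation. About 100-200 nM protein was applied to universal all-10-mer Agilent arrays, double-stranded by primer extension on fresh or once-stripped slides. Bound protein was detected with fluorescent anti-GST, and scans were normalised with masliner. The Universal PBM Analysis Suite gave each ungapped eight-base word, pooled with its reverse complement, an E-score, a modified Wilcoxon-Mann-Whitney statistic.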

| Sequence | PBM E-score |
| --- | --- |
| ATACATTG | 0.153 |
| ATGTAGGC | -0.0389 |
| AGGCAACA | -0.0635 |
| AGGCGGAA | 0.045 |
| GGGCGGTA | -0.206 |
| TCGCACAA | -0.00833 |
| ACCCTAGA | -0.134 |
| ACTAAAGA | 0.105 |
| CAGTTTTA | 0.00126 |
| AGTTACCC | -0.103 |
| GCCAATGA | -0.0994 |
| GACGCTGC | -0.0497 |
| ACTCAACA | 0.167 |
| GGACCGCA | -0.0991 |
| CGTGAGGA | -0.0192 |
| CTTACCGC | -0.0927 |
| AGACGCAG | -0.0866 |
| CTACCAAC | 0.0112 |
| ACCGTACG | -0.133 |
| GGATCGAC | -0.193 |
| ACAACCCT | -0.202 |
| ATTTGAAA | 0.222 |
| ACATCAAA | 0.101 |
| CCAAAGGA | -0.159 |
| AGAGATGC | -0.0217 |

| Sequence | PBM E-score |
| --- | --- |
| ATGTCCAG | -0.203 |
| ATCCGGAT | -0.104 |
| ATCCGGTA | -0.0898 |
| AGAATTTC | -0.136 |
| ATGTACAG | -0.0888 |
| CAATTCGA | 0.0475 |
| GCTTATCC | -0.0378 |
| CGACGTAG | -0.095 |
| CAGTCCAC | -0.198 |
| CCAGGTAG | -0.213 |
| ATCAGGAT | 0.0871 |
| CTTCAAAG | 0.0508 |
| AGTGGGGG | -0.433 |
| AGAAGTTG | -0.163 |
| TAATGTGA | 0.239 |
| ATGGAGCC | -0.103 |
| ACGAATCA | 0.23 |
| CGGCCATC | -0.287 |
| AATATGCT | 0.163 |
| CAATCCTC | -0.114 |
| TGACGCAA | 0.489 |
| AACTGCAT | 0.148 |
| CACCGGCG | -0.0103 |
| AATACTGT | 0.094 |
| AACCTGAT | 0.13 |

| Sequence | PBM E-score |
| --- | --- |
| CCAGCTTA | -0.119 |
| AATATAAG | 0.352 |
| GGCAGAGA | -0.0315 |
| GAGGACTC | -0.37 |
| CCGTTTGC | -0.015 |
| AACTCCTA | -0.0898 |
| AGATATTG | 0.0964 |
| TATAAGCA | 0.124 |
| GTACCTGA | 0.0404 |
| AAGCACTG | -0.1 |
| CAAGGCAC | 0.0967 |
| GTAGTTCA | -0.0987 |
| CCCCGGGC | -0.277 |
| CTGTGGAC | -0.263 |
| CGTTTGAA | 0.183 |
| CGTACGAG | -0.053 |
| GCGTGAAC | -0.126 |
| CTATGAAG | 0.0163 |
| AAGGTGGC | -0.102 |
| ATGCGCAT | 0.236 |
| CGATGAGC | 0.0185 |
| AATAGTAC | -0.0231 |
| ATCGGGCG | -0.178 |
| GACGCCGC | 0.271 |
| ACCCGGCA | -0.143 |

| Sequence | PBM E-score |
| --- | --- |
| CCGCAATA | 0.128 |
| CAACAAAG | 0.165 |
| ACAGTACG | 0.00835 |
| GATACGAA | 0.0906 |
| CAAATCGA | -0.0314 |
| ATACGTTC | 0.0426 |
| GGTGCTTA | -0.154 |
| ACTCTATC | -0.0672 |
| AAGGGTTA | 0.0261 |
| ATTTTGCG | 0.117 |
| GCGCCCCC | -0.243 |
| CCGTCGAG | 0.0117 |
| AAATAATT | 0.272 |
| AATGAACC | 0.0281 |
| ACCACCGT | -0.235 |
| AATATTCC | 0.236 |
| ACGGGGGG | -0.332 |
| AGCCTCAC | -0.089 |
| CCGAATGA | 0.161 |
| CGGCGCAC | 0.141 |
| GCTCTGTA | -0.0831 |
| AGTAAAAA | 0.186 |
| AGTAGGGA | 0.017 |
| ATCTCCTC | -0.181 |
| CTACGCTC | -0.173 |

| Sequence | PBM E-score |
| --- | --- |
| CATCCGAG | -0.0981 |
| CGTGTTAA | 0.0629 |
| GGCACACA | 0.0237 |
| GCTTTCAA | 0.0524 |
| CGTGCCAC | 0.0375 |
| CGACAGAA | 0.0668 |
| ACAAAGGG | -0.131 |
| CGGCTACG | 0.0292 |
| GAGTCTAA | -0.0629 |
| AGAGAACG | 0.063 |
| ATGTTTAA | 0.164 |
| AGAAGTCA | 0.0402 |
| ATACTGTC | 0.161 |
| AGGCGCGC | 0.103 |
| CTCCTGCA | -0.315 |
| CACAGCCG | 0.0811 |
| AGTCCTTA | -0.0772 |
| CCGTTAAA | -0.0355 |
| CTCAGAAC | 0.102 |
| AACATCGA | 0.2 |
| GCCAGGGA | -0.205 |
| ATCACAAA | 0.185 |
| CGGTTCAA | -0.061 |
| GGGGTAAC | -0.0602 |
| AGCGTGGA | -0.138 |

| Sequence | PBM E-score |
| --- | --- |
| ATTGCTAG | -0.0643 |
| ACAGGCTC | -0.149 |
| GGAGCTCA | -0.299 |
| ACGCATTC | -0.109 |
| CACAGATA | -0.0958 |
| AGGGACAC | -0.0404 |
| GGGGCTTA | -0.346 |
| CAGTCTGC | -0.112 |
| AAACACCG | 0.0634 |
| ACGATAGC | 0.16 |
| AGCGACGC | -0.0225 |
| ACTTTAGA | 0.115 |
| ACTTCACG | -0.0693 |
| ATGACCAC | 0.0841 |
| GATTCAAC | 0.102 |
| GTGCGGAA | -0.0138 |
| GGACCATA | -0.19 |
| AATTCCGC | 0.0507 |
| AAAAGCAT | -0.0477 |
| CAACGTGC | -0.00697 |
| ATATAGCG | 0.056 |
| CTCCGTCC | -0.313 |
| AGCACCAT | -0.31 |
| AGCTCTAT | -0.123 |
| AGGTAAAC | 0.244 |

| Sequence | PBM E-score |
| --- | --- |
| CGTGCAAG | -0.0707 |
| CATATCCG | -0.0541 |
| GAATCCAC | -0.0122 |
| GCGGCTCC | -0.0319 |
| AGCACCCG | -0.145 |
| CCGTGGCA | -0.00454 |
| CGCTTAGC | -0.192 |
| ACGAATAT | 0.204 |
| GACAGCGA | -0.0876 |
| GGATCACC | -0.0554 |
| CTTAATTC | 0.173 |
| GGTTATTA | 0.158 |
| ATCACCCA | -0.00057 |
| GTACGACA | 0.173 |
| GGAATCCC | -0.276 |
| ACCTATTG | -0.102 |
| ACGCGTGA | 0.23 |
| ACTGTGGC | -0.214 |
| CGTGCGTC | 0.289 |
| CATTCACC | 0.0654 |
| CAAGGCTG | -0.162 |
| GGCAGTCA | -0.0057 |
| AACGTACA | 0.0856 |
| GGTAACTA | 0.108 |
| CGGCCGGC | -0.109 |

| Sequence | PBM E-score |
| --- | --- |
| CCTAAAAG | -0.287 |
| CAGGAAAG | -0.116 |
| CGCCTTAG | 0.132 |
| CTCCACTC | -0.208 |
| AACGCCCA | 0.0351 |
| CAGAAACC | 0.091 |
| CACAGGGA | -0.144 |
| CGTTCGGA | 0.0188 |
| AGCTGTCA | 0.0154 |
| AACGGCTC | 0.244 |
| CGCGTGAG | 0.15 |
| AGCGAGCT | -0.0469 |
| AGGTTCAC | -0.124 |
| AAACTACT | 0.113 |
| GACCGGTA | -0.361 |
| CAATCTAA | 0.0224 |
| AGTGTATA | 0.0918 |
| GAGTTCGC | -0.16 |
| ACTCCAGG | -0.136 |
| GCTAGTAA | 0.0344 |
| AACGGAGA | -0.0425 |
| ATATCGCG | 0.111 |
| CCTAGCCC | -0.306 |
| AAAGATGT | 0.13 |
| GAGGAGCC | -0.135 |

| Sequence | PBM E-score |
| --- | --- |
| CGTTGATC | 0.0387 |
| CACAGGCA | -0.049 |
| ATAGACTA | 0.0904 |
| CCCACTAC | -0.0591 |
| CATCTACA | 0.0501 |
| AAGCAAGT | -0.00879 |
| ATCCAAGC | -0.32 |
| GACTGGCC | -0.319 |
| CCACGTGC | -0.00071 |
| GCATCAAA | 0.12 |
| AAGACTAC | -0.103 |
| AGACGCAC | -0.0677 |
| CCTCGCCA | -0.296 |
| GGCGGCTA | 0.0119 |
| AGATCCTA | -0.0413 |
| ACCCACGC | -0.0795 |
| CACCTTGA | -0.0111 |
| TTCGAGAA | 0.154 |
| CCACGTGG | -0.194 |
